For test [1], the target named is T1, DhaA.WT (Rhodococcus rhodochrous, UniProt P0A3G2).
Test [2] concerns the target T1, DhaA.WT. The format is binding. The text has this:
Then the proteins were resolved on SDS-PAGE.

Like-named read-outs stand apart in the source and are kept apart here.

We go through three molecules from patent US9416353B2, “Covalent tethering of functional groups to proteins and substrates therefor” (Promega Corporation, priority 2004, dated 2016).

T1 sequence (P0A3G2 whole entry): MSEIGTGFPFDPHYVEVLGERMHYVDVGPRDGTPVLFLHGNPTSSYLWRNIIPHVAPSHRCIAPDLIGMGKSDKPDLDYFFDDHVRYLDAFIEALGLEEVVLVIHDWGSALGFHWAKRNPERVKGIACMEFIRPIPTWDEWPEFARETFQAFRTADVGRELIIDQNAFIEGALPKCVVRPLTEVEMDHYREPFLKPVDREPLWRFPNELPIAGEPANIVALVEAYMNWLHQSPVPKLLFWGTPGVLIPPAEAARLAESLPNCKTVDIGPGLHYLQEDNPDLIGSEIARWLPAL

For `O=C(NCCOCCOCCCCCCCl)c1ccc(-c2c3ccc(=O)cc-3oc3cc(O)ccc23)c(C(=O)O)c1` [N-{2-[2-(6-Chlorohexyloxy)-ethoxy]-ethyl}-fluorescein-5-amide], the “hydrolysis by DhaA.WT” value on DhaA.WT [1] is given as “very efficiently hydrolyzed”. Further, the “binding to DhaA.WT” value on DhaA.WT [2] (15 minutes at room temperature) is given as “not to DhaA.WT”.

Turning to `O=C(CCCC[C@@H]1SC[C@@H]2NC(=O)N[C@@H]21)NCCOCCOCCCCCCCl` [biotin-C10H21NO2—Cl, N-{2-[2-(6-Chlorohexyloxy)-ethoxy]ethyl}-biotin-amide], the “binding to DhaA.WT” value on DhaA.WT [2] (15 minutes at room temperature) was “not to DhaA.WT”.

Consider “N-{2-[2-(6-Chlorohexyloxy)-ethoxy]-ethyl}-tetramethylrhodamine-5-(and -6)-amide”, for which the “binding to DhaA.WT” value at DhaA.WT [2] is recorded as “not to DhaA.WT”.
